This is one part of the list.
The compounds below were run on HSkMC (human skeletal muscle cells) (assay: cytotoxicity call (relative viability < 0.9)). Settings: 10 µM.
`Cc1cccc(S(=O)(=O)N2C[C@@H](O)COC[C@H]3O[C@@H](CC(=O)N4CCN(C)CC4)CC[C@@H]32)c1` was tested, and the cytotoxicity call was “inactive”. For `Cc1noc(C)c1S(=O)(=O)N(C)C[C@@H]1Oc2ccc(NC(=O)Nc3ccc4c(c3)OCO4)cc2CC(=O)N([C@@H](C)CO)C[C@H]1C`, the cytotoxicity call was “inactive”. For `C[C@@H]1CN([C@H](C)CO)C(=O)c2cccc(NC(=O)CCCCCC(=O)Nc3ccccc3N)c2O[C@@H]1CN(C)Cc1ccc(-c2ccccc2)cc1`, the cytotoxicity call was “inactive”. With `C[C@H](O)C#Cc1cnc2c(c1)C(=O)N([C@H](C)CO)C[C@H](C)[C@@H](CN(C)C(=O)Nc1ccc(C(F)(F)F)cc1)O2` the cytotoxicity call was “inactive”. For `CC(C)Oc1ccc(S(=O)(=O)N2CCN(c3ccc(-c4ncco4)c(OCC(=O)O)c3)CC2)cc1`, the cytotoxicity call was “inactive”. For `C[C@H](CO)N1C[C@H](C)[C@@H](CN(C)Cc2ccc3c(c2)OCO3)Oc2c(NC(=O)c3cnccn3)cccc2C1=O`, the cytotoxicity call was “inactive”. In the case of `C[C@H]1CN([C@@H](C)CO)C(=O)Cc2cc(NC(=O)CCN3CCOCC3)ccc2O[C@H]1CN(C)Cc1ccncc1`, the cytotoxicity call is reported as “inactive”. In the case of `C[C@H]1CN([C@@H](C)CO)C(=O)Cc2cc(NC(=O)CCN3CCOCC3)ccc2O[C@@H]1CN(C)Cc1ccccc1`, the cytotoxicity call is reported as “inactive”. In the case of `C[C@H]1CN([C@@H](C)CO)C(=O)c2cc(C#CC3CCCCC3)cnc2O[C@@H]1CN(C)C(=O)Cc1ccccn1`, the cytotoxicity call is reported as “inactive”. For `Nc1ccccc1C(=O)N[C@H]1CCCCNC1=O`, the cytotoxicity call was “inactive”. In the case of `Cc1ccc(CNc2ccc3c(c2)ncn3C2CCCCC2)cc1`, the cytotoxicity call is reported as “inactive”. `Cc1ccc(S(=O)(=O)N[C@@H](Cc2ccccc2)C(=O)NCCCn2cc(-c3cccc(/C=C/C(=O)NO)c3)nn2)cc1` was tested, and the cytotoxicity call was “inactive”. `CNC(=O)[C@H]1C[C@@H]2CN(Cc3cnn(C)c3)C[C@@H]2N1C` was tested, and the cytotoxicity call was “inactive”. For `O=C(C[C@H]1CC[C@H]2[C@@H](COC[C@@H](O)CN2S(=O)(=O)c2ccc(F)cc2)O1)NCc1ccc(Cl)c(Cl)c1`, the cytotoxicity call was “inactive”. `C=C1COC(=O)[C@@H]2[C@@H](CO)[C@@H](O)C[C@H]12` was tested, and the cytotoxicity call was “inactive”. For `COc1ccc(S(=O)(=O)N2CCO[C@@H]2CNC(=O)C(=O)NCc2ccncc2)cc1`, the cytotoxicity call was “inactive”. `C[C@H](CO)N1C[C@H](C)[C@H](CN(C)C(=O)Nc2ccc3c(c2)OCO3)OCCCC[C@H](C)Oc2ccc(NS(=O)(=O)c3ccccc3)cc2C1=O` was tested, and the cytotoxicity call was “inactive”. `C[C@@H]1CN([C@@H](C)CO)C(=O)c2cccc(NC(=O)c3ccc(-c4nccs4)cc3)c2O[C@@H]1CN(C)CC1CCCCC1` was tested, and the cytotoxicity call was “inactive”. In the case of `CCc1nc2ccc(C(=O)Nc3ccc(OC)c(OC)c3)cn2c1N(CC)Cc1cccc(Br)c1`, the cytotoxicity call is reported as “inactive”. `C[C@H]1CN([C@@H](C)CO)C(=O)c2c(c3ccccc3n2C)-c2ccccc2CO[C@H]1CN(C)Cc1ccc(F)cc1` was tested, and the cytotoxicity call was “inactive”. For `CC(C)Cn1c(=O)[nH]c2c1c(=O)n(C)c(=O)n2C`, the cytotoxicity call was “inactive”. `C[C@H]1CN([C@@H](C)CO)C(=O)CCCn2cc(nn2)CO[C@H]1CN(C)S(=O)(=O)c1ccc(Oc2ccccc2)cc1` was tested, and the cytotoxicity call was “inactive”. For `C[C@@H]1CCCCO[C@@H](CN(C)C(=O)Nc2cccc3ccccc23)[C@H](C)CN([C@H](C)CO)C(=O)c2cc(NC(=O)NC3CCCCC3)ccc2O1`, the cytotoxicity call was “inactive”. In the case of `C[C@H](O)C#Cc1ccc2c(c1)O[C@@H](CN(C)C(=O)CN(C)C)[C@H](C)CN([C@H](C)CO)S2(=O)=O`, the cytotoxicity call is reported as “inactive”. `COc1ccc2c3c([nH]c2c1)[C@H](CO)N(C[C@]13CCN(CC1)C(=O)c1ccncc1)C(=O)c1ccncc1` was tested, and the cytotoxicity call was “inactive”. In the case of `CCNC(=O)C[C@H]1CC[C@@H](NC(=O)C2CC2)[C@@H](CO)O1`, the cytotoxicity call is reported as “inactive”. In the case of `CCC(=O)N1CCC[C@](C)(C(=O)NS(=O)(=O)c2ccc(S(C)(=O)=O)cc2)C1`, the cytotoxicity call is reported as “inactive”. `COc1ccc(S(=O)(=O)Nc2ccc3c(c2)C(=O)N([C@@H](C)CO)C[C@@H](C)[C@@H](CN(C)C(=O)c2ccccc2)OCCCC[C@@H](C)O3)cc1` was tested, and the cytotoxicity call was “inactive”. In the case of `CC1(CO)COC1`, the cytotoxicity call is reported as “inactive”. `COc1ccc(CN(C)C[C@@H]2OCCCC[C@@H](C)Oc3ccc(NS(=O)(=O)c4cccs4)cc3C(=O)N([C@@H](C)CO)C[C@H]2C)cc1` was tested, and the cytotoxicity call was “inactive”. For `O=C(C[C@@H]1C[C@@H]2c3cc(NS(=O)(=O)c4ccc(F)cc4)ccc3O[C@@H]2[C@@H](CO)O1)N1CCOCC1`, the cytotoxicity call was “inactive”. For `Cc1noc(C)c1NC(=O)Nc1ccc2c(c1)C(=O)N([C@H](C)CO)C[C@@H](C)[C@H](CN(C)C(=O)Nc1ccc(F)cc1)OCCCC[C@H](C)O2`, the cytotoxicity call was “inactive”. `COc1ccc(NC(=O)Nc2ccc3c(c2)C(=O)N([C@H](C)CO)C[C@@H](C)[C@@H](CN(C)C(=O)NC2CCCCC2)OCCCC[C@@H](C)O3)cc1` was tested, and the cytotoxicity call was “inactive”. With `O=C1NN=COc2ccccc21` the cytotoxicity call was “inactive”. `CC1CC(=O)NN=C1c1ccc(NN=C(C#N)C#N)cc1` (stereo not given) was tested, and the cytotoxicity call was “inactive”. `C[C@@H]1CN([C@@H](C)CO)C(=O)c2cccc(NC(=O)Nc3ccc(C(F)(F)F)cc3)c2O[C@H]1CN(C)Cc1ccc(Cl)c(Cl)c1` was tested, and the cytotoxicity call was “active”. In the case of `CC(=O)N[C@H]1[C@H](Oc2nc3cc(C)ccc3o2)O[C@H](CO)[C@@H](O)[C@@H]1O`, the cytotoxicity call is reported as “inactive”. In the case of `CC(C)(C)c1cc(NC(=O)Nc2ccc(-c3cn4c(n3)sc3cc(OCCN5CCOCC5)ccc34)cc2)no1`, the cytotoxicity call is reported as “active”. For `CC[C@H](C)C[C@H](C)CCCCCCCCC(=O)N[C@H]1C[C@@H](O)[C@@H](NCCN)NC(=O)[C@@H]2[C@@H](O)CCN2C(=O)[C@H]([C@H](O)CCN)NC(=O)[C@H]([C@H](O)[C@@H](O)c2ccc(O)cc2)NC(=O)[C@@H]2C[C@@H](O)CN2C(=O)[C@H]([C@@H](C)O)NC1=O`, the cytotoxicity call was “inactive”. For `C[C@H]1CN([C@@H](C)CO)C(=O)c2cccc(NC(=O)CCCCCC(=O)Nc3ccccc3N)c2O[C@H]1CN(C)C(=O)Nc1ccc(C(F)(F)F)cc1`, the cytotoxicity call was “inactive”.

From the antibiotic and cytotoxicity screens of Wong et al. (2023)
